The other results are listed elsewhere or left out.

For the assay, the target named is T1, MBP-FoxP1dN (Mus musculus, UniProt P58462 326-579).
T1 sequence: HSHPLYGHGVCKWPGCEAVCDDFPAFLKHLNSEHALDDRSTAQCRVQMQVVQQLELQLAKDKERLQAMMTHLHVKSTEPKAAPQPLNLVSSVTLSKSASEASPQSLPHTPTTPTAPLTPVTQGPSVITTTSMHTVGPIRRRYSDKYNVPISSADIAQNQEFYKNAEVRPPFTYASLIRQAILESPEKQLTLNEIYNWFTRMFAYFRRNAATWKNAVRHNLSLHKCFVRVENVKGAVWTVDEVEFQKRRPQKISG
Description: PD-seq (MBP pull-down with sequencing); 20 mM Tris-HCl pH 7.5, 100 mM NaCl, 1.5 mM MgCl2, 0.4 uM protein, 0.1 uM dsDNA library, 30 min, room temperature, amylose pull-down; high values mean tight binding. As to conditions: protein: recombinant; tags: His6-MBP; chain copies: 2; dsDNA, one strand shown. The procedure, abridged: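 Mouse FoxP3 or FoxP1 fragment lacking the N-terminus, His6-MBP-tagged and expressed in E. coli, was incubated at 0.4 µM with 0.1 µM Klenow-filled degenerate double-stranded DNA library for 30 min at room temperature in Tris pH 7.5 buffer with NaCl and MgCl2. Complexes captured on amylose resin were washed three times and their DNA sequenced on Illumina. Binding is reads-per-million enrichment of pull-down over input, replicates pooled.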
As for “GATGATTGTTCTCCCAGCTGATGAATTGAAGCTGTCGAGTAAACAAATTTTCCTAATCTTTCTGTTCAAGCGCCATCTAC”, the binding signal is 0.938 RPM ratio (pull-down/input).
Regarding “GATGATTGTTCTCCCAGCTGATGAATTTCGCGCATCGAGTAAACAAATTTTCCTAATCTTTCTGTTCAAGCGCCATCTAC”, the binding signal was 1.15 RPM ratio (pull-down/input).
Then “GATGATTGTTCTCCCAGCTGATGAATTCACGAGGTCGAGTAAACAAATTTTCCTAATCTTTCTGTTCAAGCGCCATCTAC”, with 0.748 RPM ratio (pull-down/input).
The same measure for “GATGATTGTTCTCCCAGCTGATGAATTGCGTTTGTCGAGTAAACAAATTTTCCTAATCTTTCTGTTCAAGCGCCATCTAC”: 1.23 RPM ratio (pull-down/input); for “GATGATTGTTCTCCCAGCTGATGAATTGGGCGACTCGAGTAAACAAATTTTCCTAATCTTTCTGTTCAAGCGCCATCTAC”: 0.776 RPM ratio (pull-down/input); for “GATGATTGTTCTCCCAGCTGATGAATTCCACGATTCGAGTAAACAAATTTTCCTAATCTTTCTGTTCAAGCGCCATCTAC”: 0.904 RPM ratio (pull-down/input).
In the case of “GATGATTGTTCTCCCAGCTGATGAATTCTCCACTTCGAGTAAACAAATTTTCCTAATCTTTCTGTTCAAGCGCCATCTAC”, the binding signal is 0.886 RPM ratio (pull-down/input).
Then “GATGATTGTTCTCCCAGCTGATGAATTCTAAGGATCGAGTAAACAAATTTTCCTAATCTTTCTGTTCAAGCGCCATCTAC”, with 0.737 RPM ratio (pull-down/input); and “GATGATTGTTCTCCCAGCTGATGAATTAGATTCCTCGAGTAAACAAATTTTCCTAATCTTTCTGTTCAAGCGCCATCTAC”, with 0.891 RPM ratio (pull-down/input).
Take “GATGATTGTTCTCCCAGCTGATGAATTTTCAAGATCGAGTAAACAAATTTTCCTAATCTTTCTGTTCAAGCGCCATCTAC”: the binding signal is 0.859 RPM ratio (pull-down/input).
Then “GATGATTGTTCTCCCAGCTGATGAATTGCTTGGTTCGAGTAAACAAATTTTCCTAATCTTTCTGTTCAAGCGCCATCTAC”, with 1.06 RPM ratio (pull-down/input); and “GATGATTGTTCTCCCAGCTGATGAATTCGTAAGCTCGAGTAAACAAATTTTCCTAATCTTTCTGTTCAAGCGCCATCTAC”, with 0.838 RPM ratio (pull-down/input).
Regarding “GATGATTGTTCTCCCAGCTGATGAATTAACATCGTCGAGTAAACAAATTTTCCTAATCTTTCTGTTCAAGCGCCATCTAC”, the binding signal is 0.998 RPM ratio (pull-down/input).
Then “GATGATTGTTCTCCCAGCTGATGAATTTAATACCTCGAGTAAACAAATTTTCCTAATCTTTCTGTTCAAGCGCCATCTAC”, with 0.884 RPM ratio (pull-down/input).
The same measure for “GATGATTGTTCTCCCAGCTGATGAATTCAGACCCTCGAGTAAACAAATTTTCCTAATCTTTCTGTTCAAGCGCCATCTAC”: 0.807 RPM ratio (pull-down/input).
The same measure for “GATGATTGTTCTCCCAGCTGATGAATTCTAATTATCGAGTAAACAAATTTTCCTAATCTTTCTGTTCAAGCGCCATCTAC”: 1.22 RPM ratio (pull-down/input); for “GATGATTGTTCTCCCAGCTGATGAATTCTAGTATTCGAGTAAACAAATTTTCCTAATCTTTCTGTTCAAGCGCCATCTAC”: 1.11 RPM ratio (pull-down/input); for “GATGATTGTTCTCCCAGCTGATGAATTCCATTCGTCGAGTAAACAAATTTTCCTAATCTTTCTGTTCAAGCGCCATCTAC”: 0.864 RPM ratio (pull-down/input).
For “GATGATTGTTCTCCCAGCTGATGAATTCTAAACGTCGAGTAAACAAATTTTCCTAATCTTTCTGTTCAAGCGCCATCTAC”, the binding signal was 1.01 RPM ratio (pull-down/input).
Then “GATGATTGTTCTCCCAGCTGATGAATTAAATCGGTCGAGTAAACAAATTTTCCTAATCTTTCTGTTCAAGCGCCATCTAC”, with 0.944 RPM ratio (pull-down/input).
The same measure for “GATGATTGTTCTCCCAGCTGATGAATTACCTATGTCGAGTAAACAAATTTTCCTAATCTTTCTGTTCAAGCGCCATCTAC”: 1 RPM ratio (pull-down/input); for “GATGATTGTTCTCCCAGCTGATGAATTTGAGAGATCGAGTAAACAAATTTTCCTAATCTTTCTGTTCAAGCGCCATCTAC”: 0.777 RPM ratio (pull-down/input).
The same measure for “GATGATTGTTCTCCCAGCTGATGAATTCCTTACTTCGAGTAAACAAATTTTCCTAATCTTTCTGTTCAAGCGCCATCTAC”: 0.847 RPM ratio (pull-down/input).
With “GATGATTGTTCTCCCAGCTGATGAATTTAATAGCTCGAGTAAACAAATTTTCCTAATCTTTCTGTTCAAGCGCCATCTAC”, the binding signal is 0.957 RPM ratio (pull-down/input).
Then “GATGATTGTTCTCCCAGCTGATGAATTGGAAGGATCGAGTAAACAAATTTTCCTAATCTTTCTGTTCAAGCGCCATCTAC”, with 0.819 RPM ratio (pull-down/input); and “GATGATTGTTCTCCCAGCTGATGAATTCGTGCTCTCGAGTAAACAAATTTTCCTAATCTTTCTGTTCAAGCGCCATCTAC”, with 0.844 RPM ratio (pull-down/input).
For the sequence “GATGATTGTTCTCCCAGCTGATGAATTGACTGTTTCGAGTAAACAAATTTTCCTAATCTTTCTGTTCAAGCGCCATCTAC”, the binding signal is 1.15 RPM ratio (pull-down/input).
Then “GATGATTGTTCTCCCAGCTGATGAATTTGGGCCATCGAGTAAACAAATTTTCCTAATCTTTCTGTTCAAGCGCCATCTAC”, with 0.878 RPM ratio (pull-down/input); and “GATGATTGTTCTCCCAGCTGATGAATTTTGACACTCGAGTAAACAAATTTTCCTAATCTTTCTGTTCAAGCGCCATCTAC”, with 0.961 RPM ratio (pull-down/input); and “GATGATTGTTCTCCCAGCTGATGAATTTGCACGGTCGAGTAAACAAATTTTCCTAATCTTTCTGTTCAAGCGCCATCTAC”, with 0.878 RPM ratio (pull-down/input).
Then “GATGATTGTTCTCCCAGCTGATGAATTTGTGCCATCGAGTAAACAAATTTTCCTAATCTTTCTGTTCAAGCGCCATCTAC”, with 1.22 RPM ratio (pull-down/input); and “GATGATTGTTCTCCCAGCTGATGAATTACAGCCTTCGAGTAAACAAATTTTCCTAATCTTTCTGTTCAAGCGCCATCTAC”, with 0.963 RPM ratio (pull-down/input).

These data come from article PMC12820563, “FoxP3 forms a head-to-head dimer in vivo and stabilizes its multimerization on adjacent microsatellites”.
